# The full ranking holds about 33,000 sequences; the median of “E-score (-0.5 to 0.5)” is about -0.054, and the highest 2% start at about 0.39. This is one part of the list.
# Target: Ylr278c (UniProt Q05854)
# Assay: PBM E-score (8-mer binding enrichment) (E-score (-0.5 to 0.5)); higher = stronger / more preferred TF binding; most listed sequences are background and not binding sites
# Details: protein concentration: 200 nM; construct: GST-DNA-binding domain
# How it was run: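 Yeast transcription factors carrying a GST tag, as full-length proteins or DNA-binding domains, were produced by PURExpress in vitro transcription/translation. About 100-200 nM protein was applied to universal all-10-mer Agilent arrays, double-stranded by primer extension on fresh or once-stripped slides. Bound protein was detected with fluorescent anti-GST, and scans were normalised with masliner. The Universal PBM Analysis Suite gave each ungapped eight-base word, pooled with its reverse complement, an E-score, a modified Wilcoxon-Mann-Whitney statistic.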
row,Sequence,PBM E-score
1,GACATCAC,-0.0122
2,CCCCTGCA,-0.174
3,ATACATTC,-0.165
4,CTAGGCAA,-0.0858
5,GACTTGCC,-0.0798
6,AATGACAG,-0.308
7,ACAAGAGA,-0.0766
8,CTCTGTCC,-0.0172
9,CATCACGA,-0.293
10,ACATGAGT,-0.283
11,ACTTGAGC,-0.334
12,GATTTTAC,0.106
13,AATTCCTC,0.0437
14,CCTATATC,-0.0734
15,GTCGTGGA,-0.0646
16,ACAAGACC,-0.0484
17,AAGTAGAA,-0.0972
18,ACCAGGAG,-0.0703
19,CGAAATAG,0.0414
20,CTCGAAGC,-0.108
21,TCTGCGCA,-0.0591
22,CTCATAAG,-0.079
23,AGAGGTAC,-0.19
24,GGAACGAC,-0.0666
25,GACGAAGC,-0.00284

row,Sequence,PBM E-score
1,CATCCCCC,-0.0212
2,CGTCCGAC,0.243
3,ATATAGTA,-0.0693
4,GCCGCGAA,0.233
5,CTAATAGA,-0.0917
6,CTTCCATC,-0.0372
7,GATCTTGC,0.151
8,CGACCAGA,-0.0929
9,ATCAGTTG,-0.277
10,ATCGCACG,-0.197
11,GAGCGATC,0.148
12,TCGGCAAA,0.233
13,AAGCGCGA,0.0564
14,GACATAGC,-0.0226
15,ATCGGGGC,0.296
16,ACCAAGGA,-0.0602
17,AATAGACT,-0.178
18,ACTCTCCC,0.14
19,ATAACCCC,0.2
20,CAGTACTA,-0.253
21,CCGTGTAC,0.121
22,AGACGGGG,0.209
23,CTGAATAA,-0.137
24,TAATTATA,0.112
25,GGCGAAGA,0.136

row,Sequence,PBM E-score
1,CGCACTAC,0.104
2,CCAGCTTC,-0.0973
3,CCCCTACG,-0.176
4,CACGGTAG,-0.139
5,ACCACTTG,-0.0509
6,CAAGGATA,-0.11
7,GTCGTTAA,-0.0218
8,CCCAAAAC,-0.216
9,AGCCCCTC,-0.142
10,CATTATGA,-0.189
11,CACTAGTG,-0.0271
12,GACGGATA,0.249
13,ATCGCTTA,-0.276
14,CGGGGGAG,0.158
15,TGCACTAA,-0.0823
16,AGCACATC,0.0993
17,AGATTCGG,0.288
18,GAGTATGA,0.24
19,ACTATTGA,-0.15
20,TCCGATAA,0.428
21,AGTGGATA,-0.00948
22,CTGGCTAC,-0.258
23,CGGGCTGC,0.118
24,GATTTATA,0.0736
25,AACCCTGC,-0.198

row,Sequence,PBM E-score
1,ACAATCCT,-0.0827
2,CACATATG,-0.38
3,ATGTGTCA,-0.205
4,CGTAGCTA,-0.243
5,AATAATCC,0.149
6,GTACCTAA,-0.288
7,ACCCGCCC,0.292
8,AACTCTGG,-0.179
9,ATTGCTGG,-0.141
10,ACGTCTTG,-0.182
11,TATCCACA,-0.144
12,CTATGGAC,0.0134
13,AGTTTCCA,-0.0248
14,GTTCCTCA,-0.0284
15,AGCAATAG,-0.0696
16,AACATACA,-0.105
17,CGGCTTAA,0.333
18,ACCGTGCG,0.00414
19,GTAGGCAA,-0.233
20,AGAGGCTA,-0.164
21,ACGTCGTG,-0.0983
22,CCCCACAG,-0.305
23,GATCTACC,-0.0521
24,CTTAGAAG,-0.185
25,AACGACTT,-0.203

row,Sequence,PBM E-score
1,AGCGTATG,-0.0606
2,GACTCCTA,-0.191
3,AGCATCGC,-0.0596
4,AAACGTTG,-0.188
5,CCCGGGTA,0.289
6,CATTCTAC,-0.0539
7,CAGTCATG,-0.129
8,CAATACTA,-0.165
9,GGGTAGGA,0.036
10,CTAAAGGA,-0.0918
11,CCGAACGG,0.313
12,CTCCACAA,-0.0554
13,GCCCAAAA,-0.0732
14,ATTTTTTG,0.0266
15,AGTGGCAA,-0.0899
16,ATAAGTCG,0.0379
17,AACCCTCC,0.0776
18,AACGTTGG,-0.187
19,AGGAGACT,-0.176
20,CACGCTCA,-0.00011
21,CGTGCGCC,0.143
22,ATGTGCGA,-0.0711
23,GCGGATAC,0.237
24,ATTGGTCC,0.122
25,CACCAAGA,-0.125

row,Sequence,PBM E-score
1,ATGGCGGA,0.319
2,GAAATTTC,0.0871
3,AGGACCGC,0.227
4,GAGTACTA,-0.0512
5,AGCTATAG,-0.301
6,CGACTACA,-0.144
7,GGGGGTAC,0.0141
8,AGCAAAGA,-0.138
9,CAGCTCGC,-0.157
10,AGTTGAAT,-0.0111
11,AAAGAGCT,-0.155
12,TCCACCAA,-0.0779
13,AATTTCTC,0.121
14,ATGGACTG,-0.179
15,CTGAAAGC,0.112
16,GCAAGCGA,-0.0851
17,CGACAACC,-0.0858
18,AAGGGATA,-0.183
19,AACCAAGA,-0.119
20,ACAGTGCG,0.0189
21,GAGCGATA,-0.0698
22,ACTCCTCG,0.0271
23,GCGCACAA,0.0955
24,AAGAATAT,-0.118
25,CTAGTTGC,-0.0925

row,Sequence,PBM E-score
1,AGTCGTTA,-0.168
2,ACGGTGTA,0.0979
3,CGTCCCCC,-0.033
4,ATAATCGG,0.289
5,CCTTGTTA,-0.225
6,ATACCATC,0.0633
7,ATCTGATG,-0.138
8,GCGGAAAC,0.271
9,GTATCTAA,-0.0817
10,AGGCAGTA,-0.361
11,TAACGAAA,-0.0536
12,GAACATAC,0.0414
13,ACAAAAAC,0.117
14,GGCAACAC,0.0328
15,TCCGTACA,0.263
16,GACTACAA,-0.177
17,ACGAGCGA,-0.195
18,ATCTCGAC,-0.0424
19,CGCAGATA,-0.121
20,GAATGGCA,0.0716
21,CAGGAGGA,-0.219
22,GTCGAATA,-0.0877
23,CATAATGG,-0.167
24,AGACGGAG,0.392
25,ATACGCTA,-0.0321

row,Sequence,PBM E-score
1,GATATGAA,-0.0301
2,CACAGCGA,-0.0374
3,CCGTTACC,0.133
4,ATCTTAGA,-0.0134
5,ATTATGTA,0.0306
6,CACTAATG,-0.0878
7,ACCAGTCT,-0.193
8,GTGACGCA,-0.128
9,AAGTATAC,-0.146
10,ACGTCTGG,-0.23
11,ACTCCCCC,0.0358
12,ACTTGAAC,-0.0067
13,CGTCTCTC,-0.00934
14,ACCGGTTG,0.221
15,ACTCTTCA,-0.191
16,AACTCTTG,-0.319
17,AGTCTGGG,-0.32
18,AACACGGC,0.0459
19,AGCAATGC,0.072
20,AGATGGGA,-0.055
21,AGTCGATA,-0.186
22,AGACAGAT,-0.0803
23,ATAAGGCC,0.0877
24,ATTCCTAA,0.0152
25,CTCTGCAA,-0.0683

row,Sequence,PBM E-score
1,TGTCATAA,-0.333
2,GCGACTCC,0.0827
3,GATCAAAA,-0.0359
4,AAACGAAG,-0.055
5,CGACGTTC,-0.0869
6,GTGCGCCA,-0.0886
7,GTAAAAAA,0.0208
8,TGGCTAAA,-0.0681
9,AGTTCGAG,-0.156
10,AAATTCAC,0.00682
11,GATAAATA,0.092
12,GGCTAAAC,0.108
13,TGGTTGAA,-0.178
14,CACCGAAG,0.167
15,ATGATCCC,0.183
16,AACGTCAC,-0.187
17,GGGCGCAA,-0.0471
18,GGATTATA,0.154
19,CGCAAGGC,0.0765

# Source: the supplement of paper PMC3334620
